This note sets out measurements from the supplement of paper PMC9446081.

The whole screen tested about 39,000 compounds, of which about 220 (0.56%) showed activity. This is one part of the list.
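Note: static incubation at 37 °C against the wild-type strain, values averaged over two biological replicates.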

This experiment concerns Escherichia coli K-12 BW25113. Nature of the experiment: relative growth (OD600 normalised to plate interquartile mean) (fraction); higher = less growth inhibition, active = 0.2 or less. Conditions: 50 µM; LB; incubation time: overnight (16-24 h).
For the compound `C[C@H](CO)N1C[C@H](C)[C@H](CN(C)S(=O)(=O)c2cccs2)Oc2ccc(NS(=O)(=O)c3ccccc3)cc2C1=O`, the relative growth was inactive: 1.01. In the case of `C[C@@H]1CN([C@H](C)CO)C(=O)c2cccc(NS(C)(=O)=O)c2O[C@H]1CN(C)C(=O)NC1CCCCC1`, the relative growth was inactive: 1.01. As for `CS(=O)(=O)N[C@H]1CCN(c2ccccn2)C1`, the relative growth is inactive: 1.02. Consider `COc1ccc(S(=O)(=O)N(C)C[C@H]2Oc3cc(C4=CCCC4)ccc3S(=O)(=O)N([C@H](C)CO)C[C@H]2C)cc1`, for which the relative growth is inactive: 1.04. In the case of `Nc1ccc(Oc2ccccc2)cc1` it was inactive: 0.861. In the case of `CCC(=O)c1ccc(Cl)s1` it was inactive: 1.05; in that of `COc1ccc(NC(=O)Nc2ccc3c(c2)C(=O)N([C@H](C)CO)C[C@H](C)[C@H](CN(C)C(=O)Nc2ccc(C(F)(F)F)cc2)OCCCC[C@H](C)O3)cc1`, inactive: 1; in that of `Cc1noc(C)c1S(=O)(=O)N(C)C[C@@H]1Oc2c(NS(=O)(=O)c3ccccc3)cccc2C(=O)N([C@H](C)CO)C[C@@H]1C`, inactive: 0.978. Regarding `C[C@H](CO)N1C[C@H](C)[C@@H](CN(C)Cc2ccccc2)Oc2ccc(NC(=O)Cn3cnnn3)cc2CC1=O`, the relative growth is inactive: 1.01. Regarding `Cc1ccc(S(=O)(=O)Nc2ccc3c(c2)C(=O)N([C@@H](C)CO)C[C@H](C)[C@@H](CN(C)Cc2ccc(C(F)(F)F)cc2)OCCCC[C@H](C)O3)cc1`, the relative growth is inactive: 0.986.

Consider `C[C@H]1CN([C@@H](C)CO)C(=O)c2cccc(NC(=O)Nc3ccc(C(F)(F)F)cc3)c2O[C@@H]1CN(C)C(=O)Nc1ccc(C(F)(F)F)cc1`, for which the relative growth is inactive: 0.971. Consider `C[C@@H]1CN([C@@H](C)CO)C(=O)c2cc(NC(=O)Nc3ccccc3)ccc2O[C@@H](C)CCCCO[C@H]1CN(C)C(=O)Nc1cccc2ccccc12`, for which the relative growth was inactive: 0.997. With `O=c1[nH]cc(Nc2ccccc2)c(=O)[nH]1`, the relative growth was inactive: 1.01. In the case of `C[C@@H]1CCCCO[C@H](CN(C)Cc2ccc(Cl)c(Cl)c2)[C@@H](C)CN([C@H](C)CO)C(=O)c2cc(NS(=O)(=O)c3ccc(Cl)cc3)ccc2O1`, the relative growth was inactive: 1.03. Regarding `CC(C)NC(=O)N(C)C[C@H]1Oc2ccc(NS(=O)(=O)c3ccccc3)cc2C(=O)N([C@H](C)CO)C[C@H]1C`, the relative growth was inactive: 1.01. As to `C[C@@H]1CN([C@@H](C)CO)S(=O)(=O)c2ccc(C#Cc3cccc(F)c3)cc2O[C@H]1CN(C)C(=O)CN1CCOCC1`, the relative growth is inactive: 1.01.

As to `CO[C@@H]1CN(C)C(=O)c2ccc(NS(C)(=O)=O)cc2OC[C@@H](C)N(C(=O)CN(C)C)C[C@H]1C`, the relative growth was inactive: 0.981. Take `C[C@@H]1CN([C@@H](C)CO)S(=O)(=O)c2ccc(Br)cc2O[C@H]1CN(C)S(=O)(=O)c1cccc(F)c1`: the relative growth is inactive: 0.992. In the case of `C[C@@H]1CN([C@H](C)CO)C(=O)c2cc(C#C[C@@H](C)O)cnc2O[C@H]1CN(C)Cc1cncnc1` it was inactive: 1; in that of `COCC#Cc1ccc2c(c1)O[C@@H](CN(C)Cc1ccc(F)cc1)[C@H](C)CN([C@H](C)CO)S2(=O)=O`, inactive: 1.04; in that of `C[C@]1(C(=O)NCC(F)(F)F)c2ccccc2C(=O)N(Cc2cc(F)cc(C(F)(F)F)c2)[C@H]1c1ccc(CO)cc1`, inactive: 1.01. For `O=C1CCNC(=O)N1` the value was inactive: 1; for `Cc1noc(C)c1NC(=O)Nc1ccc2c(c1)CC(=O)N([C@@H](C)CO)C[C@H](C)[C@H](CN(C)S(=O)(=O)c1ccccc1)O2`, inactive: 0.971; for `COc1ccc(S(=O)(=O)N(C)C[C@H]2Oc3ccc(NS(=O)(=O)c4cccs4)cc3C(=O)N([C@H](C)CO)C[C@@H]2C)cc1`, inactive: 1.02. Take `C[C@@H]1CN([C@H](C)CO)C(=O)c2cccc(NC(=O)Nc3cccc4ccccc34)c2O[C@@H]1CN(C)Cc1ccc(C(=O)Nc2ccccc2N)cc1`: the relative growth was inactive: 0.991. Turning to `C[C@@H]1CN([C@@H](C)CO)S(=O)(=O)c2ccc(-c3cccnc3)cc2O[C@@H]1CN(C)CC1CCOCC1`, the relative growth is inactive: 0.998. On to `C[C@@H]1CCCCO[C@H](CN(C)C(=O)CCCN(C)C)[C@H](C)CN([C@@H](C)CO)C(=O)c2cc(NC(=O)Nc3ccc(F)cc3)ccc2O1`, for which the relative growth was inactive: 0.969. As for `C[C@H]1CCCCO[C@H](CN(C)C(=O)Nc2ccc(C(F)(F)F)cc2)[C@@H](C)CN([C@@H](C)CO)C(=O)c2cc(NS(=O)(=O)c3ccc(Cl)cc3)ccc2O1`, the relative growth is inactive: 0.998. As to `Cc1ccccc1-c1cc(N2CCN(C)CC2)ncc1N(C)C(=O)C(C)(C)c1cc(C(F)(F)F)cc(C(F)(F)F)c1`, the relative growth is inactive: 0.93. In the case of `C[C@@H]1CN([C@H](C)CO)C(=O)Cc2cc(NC(=O)Nc3ccc(C(F)(F)F)cc3)ccc2O[C@@H]1CN(C)Cc1ccccc1` it was inactive: 1.02.

Take `CC(C)C(=O)Nc1nnc2n1CCS2`: the relative growth is inactive: 1.02. With `COc1ccc(CN(C)C[C@H]2Oc3c(NC(=O)Nc4cccc5ccccc45)cccc3C(=O)N([C@H](C)CO)C[C@H]2C)cc1`, the relative growth was inactive: 0.989.

Turning to `NNC(=O)CCCCC(=O)NO`, the relative growth is inactive: 0.971.

For the compound `C[C@@H]1CN([C@@H](C)CO)C(=O)c2cc(NC(=O)Nc3ccc(F)cc3)ccc2O[C@@H]1CN(C)Cc1ccc(-c2ccccc2)cc1`, the relative growth was inactive: 1.01.

In the case of `O=S(=O)(NCC[C@@H]1CC[C@H](NS(=O)(=O)c2cccc(Cl)c2)[C@H](CO)O1)c1cccc(F)c1`, the relative growth is inactive: 0.998. For `O=C(N[C@H]1CC=CC[C@H](CC(=O)N(CCO)Cc2ccccc2)C(=O)N[C@H](Cc2ccccc2)COC1=O)OCC1c2ccccc2-c2ccccc21`, the relative growth was inactive: 1.02.

Regarding `CC(C)NC(=O)N(C)C[C@@H]1Oc2ccc(NS(=O)(=O)c3cccs3)cc2C(=O)N([C@H](C)CO)C[C@H]1C`, the relative growth is inactive: 0.969. In the case of `C[C@@H]1CN([C@@H](C)CO)C(=O)c2cc(NS(=O)(=O)c3cccs3)ccc2O[C@@H](C)CCCCO[C@H]1CN(C)Cc1ccc(C(=O)O)cc1` it was inactive: 1.03; in that of `CCN(CC)c1ccc(N2CC=C[C@@]34O[C@@H]5/C=C\CCCOC(=O)[C@@H]5[C@H]3C(=O)N([C@@H](C)CO)[C@@H]4C2=O)cc1`, inactive: 0.997. As to `COc1ccc(S(=O)(=O)Nc2cccc3c2O[C@@H](CN(C)S(=O)(=O)c2ccc(OC)cc2)[C@@H](C)CN([C@H](C)CO)C3=O)cc1`, the relative growth is inactive: 1.01.

For the compound `O=C1COC2(CN1)COC2`, the relative growth was inactive: 1. With `C[C@@H]1CN([C@@H](C)CO)C(=O)Cc2cc(NC(=O)CCN3CCOCC3)ccc2O[C@H]1CN(C)Cc1ccncc1`, the relative growth was inactive: 0.993.

Take `COc1ccc2c3c([nH]c2c1)[C@@H](CO)N(C[C@]13CCN(CC1)C(=O)NC(C)C)C(=O)CN1CCOCC1`: the relative growth is inactive: 1. In the case of `Cc1ccc(OC(=O)N(C)C[C@@H]2OCc3ccccc3-c3ccccc3C(=O)N([C@@H](C)CO)C[C@H]2C)cc1`, the relative growth was inactive: 1. In the case of `CC(C)NC(=O)Nc1cccc2c1O[C@@H](CN(C)S(=O)(=O)c1ccc(F)cc1)[C@@H](C)CN([C@H](C)CO)C2=O`, the relative growth was inactive: 0.989. In the case of `Cc1noc(C)c1NC(=O)Nc1cccc2c1O[C@H](CN(C)S(C)(=O)=O)[C@@H](C)CN([C@@H](C)CO)C2=O` it was inactive: 1.02; in that of `CN1CCN(C(=O)C[C@@H]2CC[C@@H]3[C@H](COC[C@@H](O)CN3C(=O)C3CCCC3)O2)CC1`, inactive: 1; in that of `Cc1ccccc1S(=O)(=O)N1C[C@@H](O)COC[C@@H]2O[C@@H](CC(=O)NCCc3ccccc3)CC[C@H]21`, inactive: 0.999. For the compound `C[C@@H]1CCCCO[C@@H](CN(C)S(=O)(=O)c2ccc(Cl)cc2)[C@@H](C)CN([C@@H](C)CO)C(=O)c2cc(NC(=O)Nc3ccc4c(c3)OCO4)ccc2O1`, the relative growth is inactive: 1.01. In the case of `CNC(=O)C[C@H]1CC[C@H]2[C@@H](COc3ccc(NC(=O)CN(C)C)cc3C(=O)N2C)O1` it was inactive: 1. As for `C[C@@H]1CN([C@H](C)CO)C(=O)Cc2cc(NS(=O)(=O)c3cn(C)cn3)ccc2O[C@@H]1CN(C)C`, the relative growth is inactive: 1.02. For the compound `CC1(C)OC(=O)C2(C(=O)O1)[C@@H](c1ccc(Br)cc1)CC(=O)C[C@H]2c1ccc(Br)cc1`, the relative growth was inactive: 1.03. As to `C[C@H]1CN([C@@H](C)CO)C(=O)Cc2cc(NS(=O)(=O)c3ccccc3)ccc2O[C@@H]1CN(C)Cc1ccc2c(c1)OCO2`, the relative growth is inactive: 1.01.

For `CC(C)NC(=O)Nc1cccc2c1O[C@H](CN(C)S(=O)(=O)c1ccc(F)cc1)[C@H](C)CN([C@@H](C)CO)C2=O`, the relative growth is inactive: 0.989.

Consider `CC(C)NC(=O)Nc1ccc2c(c1)C(=O)N([C@H](C)CO)C[C@@H](C)[C@H](CN(C)CC1CCCCC1)OCCCC[C@@H](C)O2`, for which the relative growth was inactive: 0.997.

As to `Cc1noc(C)c1S(=O)(=O)N(C)C[C@H]1Oc2ccc(NC(=O)NC(C)C)cc2CC(=O)N([C@H](C)CO)C[C@H]1C`, the relative growth is inactive: 1.01.

As to `Cc1noc(C)c1S(=O)(=O)Nc1ccc2c(c1)C(=O)N([C@H](C)CO)C[C@H](C)[C@@H](CN(C)C(=O)Nc1ccc(F)cc1)OCCCC[C@@H](C)O2`, the relative growth is inactive: 0.988.

As for `C[C@H]1CN([C@@H](C)CO)C(=O)c2cccc(NC(=O)Nc3ccc(C(F)(F)F)cc3)c2O[C@H]1CN(C)C(=O)Nc1ccc(C(F)(F)F)cc1`, the relative growth was inactive: 1.02. `C[C@H]1CN([C@@H](C)CO)C(=O)c2cc(NS(C)(=O)=O)ccc2O[C@@H]1CN(C)S(=O)(=O)c1cn(C)cn1`: the relative growth is inactive: 1. On to `C[C@H](CO)N1C[C@H](C)[C@H](CN(C)Cc2ccc(C(=O)Nc3ccccc3N)cc2)Oc2c(NC(=O)c3ccc(-c4nccs4)cc3)cccc2C1=O`, for which the relative growth was inactive: 1.02. For `COC(=O)CCCCCCC(=O)Nc1ccc([C@H]2O[C@@H](CSc3ccccn3)C[C@H](c3ccccc3)O2)cc1`, the relative growth is inactive: 1.04.
